{"source": "PubChem BioAssay AID1030", "about": "(National Center for Advancing Translational Sciences (NCATS), 2008)", "note": "Hit rate of the full screen: of about 220,000 compounds, about 16,000 (7.3%) were called active. Inconclusive results, whose numbers are uncertain, are shown with a selection of clear calls. Calls come from the whole dose curve; as a rule, active = well fitted inhibition curve with a large enough effect (not every such curve was filed as active); inconclusive = small, poorly fitted or top-dose-only effect, or another doubt; inactive = no such curve, though single readings can be large or run the other way. No potency is given beside an inconclusive call; the fits are too rough. Potency is the fitted concentration of half-maximal effect; tags give direction and shape of the fitted curve.", "data": [{"biological_target": "Aldehyde dehydrogenase 1A1 (Homo sapiens) (UniProt P00352)", "sequence (P00352 whole entry, looked up)": "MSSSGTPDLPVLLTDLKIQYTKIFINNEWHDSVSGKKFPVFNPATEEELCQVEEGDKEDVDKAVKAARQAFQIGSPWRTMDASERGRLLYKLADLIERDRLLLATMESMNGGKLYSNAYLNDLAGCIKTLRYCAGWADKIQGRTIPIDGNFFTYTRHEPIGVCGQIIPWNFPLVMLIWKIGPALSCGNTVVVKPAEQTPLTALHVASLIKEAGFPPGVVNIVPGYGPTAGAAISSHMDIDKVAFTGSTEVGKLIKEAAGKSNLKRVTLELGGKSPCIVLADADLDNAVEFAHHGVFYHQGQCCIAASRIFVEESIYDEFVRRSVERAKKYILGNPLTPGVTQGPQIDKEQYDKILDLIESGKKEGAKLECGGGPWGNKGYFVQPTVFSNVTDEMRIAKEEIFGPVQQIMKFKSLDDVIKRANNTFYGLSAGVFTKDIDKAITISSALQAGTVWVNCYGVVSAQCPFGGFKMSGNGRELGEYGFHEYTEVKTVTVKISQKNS", "test": "qHTS Assay for Inhibitors of Aldehyde Dehydrogenase 1 (ALDH1A1)", "conditions": "Purified ALDH1A1, NADH fluorescence, propionaldehyde substrate; series mostly up to 75.3 µM", "values": [{"molecule": "COc1cc(/C=N/Nc2ccc(Cl)cc2)ccc1OC(=O)c1cccs1", "Potency": "inactive"}, {"molecule": "Cc1cc(C)c(NC(=O)CO/N=C2\\CCCc3nonc32)c(C)c1", "Potency": "inactive"}, {"molecule": "O=C(Nc1ccc(Br)cc1)N1CCCC(O)C1", "note": "(configuration not stated)", "Potency": "inactive"}, {"molecule": "COC(=O)c1sccc1NC(=O)CN1CCN(c2ccc(F)cc2)CC1", "Potency": "inactive"}, {"molecule": "Cc1cc(/C=C2\\C(=N)N3N=C(S(C)(=O)=O)SC3=NC2=O)c(C)n1Cc1ccccc1", "Potency": "inconclusive [inhibitor, single point]"}, {"molecule": "Cc1ccc2cccc(OCC(=O)c3cc(C)n(Cc4ccco4)c3C)c2n1", "Potency": "inconclusive [inhibitor, single point]"}, {"molecule": "COC(=O)C1=C(C)NC(C)=C(C(=O)OC)C1c1ccc(OC(=O)c2oc3ccccc3c2C)c(OC)c1", "Potency": "inconclusive [inhibitor, single point]"}, {"molecule": "CC(C)(C)N1C(=O)[C@@H]2[C@H]3C(=CC[C@H]2C1=O)C(=O)[C@H]1O[C@H]1[C@H]3O", "Potency": "inconclusive [inhibitor, partial curve]"}, {"molecule": "Cc1noc(C)c1CSc1nnc2ccccn12", "Potency": "inconclusive [inhibitor, single point]"}, {"molecule": "CC1CCN(S(=O)(=O)c2ccc(NC(=S)NC(=O)c3ccc(Cl)cc3)cc2)CC1", "Potency": "active: 3.98 µM"}, {"molecule": "COc1ccc(N2CCN(C(c3cc4cc(C)ccc4[nH]c3=O)c3nnnn3Cc3ccccc3)CC2)cc1", "note": "(configuration not stated)", "Potency": "active: 14.1 µM"}, {"molecule": "CCOC(=O)C=C(C(=O)OCC)C(=O)OCC", "Potency": "inactive"}, {"molecule": "O=S(=O)(c1ccccc1)N1CCC2(CCCN(c3ccccc3)C2)CC1", "Potency": "inconclusive [inhibitor, single point]"}, {"molecule": "CC(NC(=O)c1ccc(S(=O)(=O)N(C)C)cc1)c1ccccc1", "note": "(configuration not stated)", "Potency": "inconclusive [inhibitor, single point]"}, {"molecule": "Cc1ccc2nc(NC(=S)NC(=O)c3ccc(OC(C)C)cc3)sc2c1", "Potency": "active: 18.9 µM"}, {"molecule": "COc1ccccc1S(=O)(=O)Cc1ccc(C(=O)N2CCN(c3ccc(C)cc3)C(C)C2)o1", "note": "(configuration not stated)", "Potency": "inconclusive [inhibitor, partial curve]"}, {"molecule": "O=C(CCCCCN1C(=O)c2cccc3cccc(c23)C1=O)NO", "Potency": "inconclusive [inhibitor, single point]"}, {"molecule": "O=C(CCOc1ccccc1)N1CCN(S(=O)(=O)c2cccs2)CC1", "Potency": "inconclusive [inhibitor, single point]"}, {"molecule": "CCN(CC)CCN1C(=O)C(=O)/C(=C(/O)c2ccncc2)C1c1ccccc1", "note": "(configuration not stated)", "Potency": "inactive"}, {"molecule": "CCOc1ccc(S(=O)(=O)Nc2cc(OC)c(OC)cc2C(=O)O)cc1", "Potency": "inconclusive [inhibitor, single point]"}, {"molecule": "COc1cccc(-c2nn(C)c3sc(C(=O)NCc4ccc5c(c4)OCO5)cc23)c1", "Potency": "inconclusive [inhibitor, single point]"}, {"molecule": "CC1=CC(C)(C)n2c(O)c(N=N)c3cc(C)cc1c32", "Potency": "inactive"}, {"molecule": "Cc1cccc(OCCNC(=O)c2ccc(Oc3ccc(C(F)(F)F)cc3[N+](=O)[O-])cc2)c1", "Potency": "inactive"}, {"molecule": "Cc1cccn2cc(-c3ccc(NC(=O)Cc4ccccc4)cc3)nc12", "Potency": "inconclusive [inhibitor, single point]"}, {"molecule": "COc1nc(-c2cccs2)cc(-c2ccc(C)cc2)c1C#N", "Potency": "inconclusive [inhibitor, partial curve]"}, {"molecule": "N#Cc1c(N)nc2c3c(sc(=N)c2c1N)NC(=O)CC3c1ccccc1", "note": "(configuration not stated)", "Potency": "inconclusive [inhibitor, single point]"}, {"molecule": "C#CCNC(=O)C1=C[C@H](c2ccc(C(F)(F)F)cc2)C[C@H](OCc2ccc(CO)cc2)O1", "Potency": "active: 28.2 µM"}, {"molecule": "Cc1coc(C)c1C(=O)CC1(O)C(=O)N(CCc2ccccc2)c2ccccc21", "note": "(configuration not stated)", "Potency": "active: 4.47 µM"}, {"molecule": "COCC(=O)NC(c1ccccc1)c1ccccc1", "Potency": "inactive"}, {"molecule": "CCOC(=O)Cc1cc(=O)n2[nH]cc(-c3ccc(Cl)cc3)c2n1", "Potency": "inconclusive [inhibitor, partial curve]"}, {"molecule": "CCCCS(=O)(=O)Nc1ccc2cn[nH]c2c1", "Potency": "inactive"}, {"molecule": "N#C/C(=C\\c1ccc(-c2cccc([N+](=O)[O-])c2)o1)C(=O)NCCN1CCOCC1", "Potency": "active: 25.1 µM"}, {"molecule": "COc1ccc(/C=C2\\NC(=S)N(CC3CCCO3)C2=O)c(OC)c1C", "note": "(configuration not stated)", "Potency": "active: 0.447 µM"}, {"molecule": "CCOC(=O)c1ccc2c(c1)nc(SCC(=O)NC(C)C)n2CC", "Potency": "inconclusive [inhibitor, single point]"}, {"molecule": "Cc1nc(Nc2ccccc2)sc1C(=O)c1ccccc1", "Potency": "inconclusive [inhibitor, single point]"}, {"molecule": "Nc1sc(-c2ccccc2)c(Cc2ccccc2)c1C(=O)O", "Potency": "active: 10 µM"}, {"molecule": "CCC(/C=N/NC(=O)C(N)=O)CC", "Potency": "inactive"}, {"molecule": "O=C(CCCCCn1c(SCC(=O)c2ccccc2)nc2ccccc2c1=O)NCc1ccco1", "Potency": "inconclusive [inhibitor, partial curve]"}, {"molecule": "COC(=O)c1cccc(NC(=O)Cc2coc3cc(OC)ccc23)c1", "Potency": "inconclusive [inhibitor, single point]"}, {"molecule": "CCOC(=O)c1ccccc1Nc1cn(C(C)=O)c2ccccc12", "Potency": "inconclusive [inhibitor, single point]"}, {"molecule": "Cc1cccc(CC2CC(=O)N(c3ccccc3)C2=O)c1", "note": "(configuration not stated)", "Potency": "inconclusive [inhibitor, partial curve]"}, {"molecule": "O=C(NC(O)C(=O)c1ccccc1)c1cccs1", "note": "(configuration not stated)", "Potency": "inconclusive [inhibitor, partial curve]"}, {"molecule": "O=c1[nH]c(C2CCCN(S(=O)(=O)c3ccc(F)cc3)C2)nc2c1nnn2Cc1ccccc1", "note": "(configuration not stated)", "Potency": "active: 14.1 µM"}, {"molecule": "CCCc1cc(=O)[nH]c(SCc2ccc(Cl)cc2)n1", "Potency": "inactive"}, {"molecule": "CSc1cccc(NC(=S)Nc2cc(C)ccc2C)c1", "Potency": "inactive"}, {"molecule": "O=C(NCc1ccccc1Cl)C(=O)NCC(c1ccco1)N1CCOCC1", "note": "(configuration not stated)", "Potency": "inactive"}, {"molecule": "CC(C)(C)c1ccc(NC(=O)COC(=O)C2(C)CC2(Cl)Cl)cc1", "note": "(configuration not stated)", "Potency": "inactive"}, {"molecule": "O=C(Cc1cccs1)N/N=C/C=C\\c1ccco1", "Potency": "active: 25.1 µM"}, {"molecule": "Cc1ccc(Nc2ncccc2C(N)=O)cc1[N+](=O)[O-]", "Potency": "inconclusive [inhibitor, single point]"}, {"molecule": "CCOC(=O)CCCCC(=O)c1[nH]c(=O)[nH]c1C[n+]1ccc(C)cc1", "Potency": "inconclusive [inhibitor, partial curve, poor fit]"}, {"molecule": "CCN(CC)c1ncnc2c1sc1nc(C)cc(C)c12", "Potency": "inconclusive [inhibitor, single point]"}, {"molecule": "O=[N+]([O-])c1cccc(-n2nnnc2CN2CCCCCC2)c1", "Potency": "inconclusive [inhibitor, single point]"}, {"molecule": "Cc1cc(NC(=O)C2COc3ccccc3O2)no1", "note": "(configuration not stated)", "Potency": "inactive"}, {"molecule": "COC(=O)[C@H]1CC2(CC=C(C)C)C(=O)[C@@](CC=C(C)C)(C(=O)C(C(=O)c3ccccc3)=C2OC)C1(C)C", "note": "(tested in a mixture with another compound)", "Potency": "inconclusive [inhibitor, single point]"}, {"molecule": "CSc1ncnc2c1ncn2CC(=O)[C@H]1CC[C@H]2[C@H]3CCC4=CC(=O)CC[C@@]4(C)[C@@H]3CC[C@@]12C", "Potency": "inconclusive [inhibitor, single point]"}, {"molecule": "CCOC(=O)N1CCN(C2CC(=O)N(c3ccc(F)cc3)C2=O)CC1", "note": "(configuration not stated)", "Potency": "inactive"}, {"molecule": "CC(=O)c1c(C)[nH]c(C(=O)Nc2nc(-c3ccc(Cl)cc3)cs2)c1C", "Potency": "inconclusive [inhibitor, partial curve]"}, {"molecule": "COc1ccc(Nc2nnc(SC(C(=O)Nc3ccc(OC)c(Cl)c3)c3ccccc3)s2)cc1", "note": "(configuration not stated)", "Potency": "inconclusive [inhibitor, partial curve]"}, {"molecule": "CCOC(=O)Cn1nnc(-c2ccc([N+](=O)[O-])cc2)n1", "Potency": "inactive"}, {"molecule": "Cc1ccc2ccc(C(Nc3ccccn3)c3ccccc3)c(O)c2n1", "note": "(configuration not stated)", "Potency": "inactive"}, {"molecule": "O=C(c1ccc(NC(=S)Nc2ccc(Cl)c(Cl)c2)cc1)N1CCCC1", "Potency": "inconclusive [inhibitor, single point]"}, {"molecule": "COc1ccc(/C=C/C(=O)C2C(=O)C=C(C)OC2=O)cc1O", "note": "(configuration not stated)", "Potency": "inconclusive [inhibitor, single point]"}, {"molecule": "C=CCN=c1sc(C(=O)OC)cc(=O)n1CC=C", "Potency": "inconclusive [inhibitor, single point]"}, {"molecule": "N#C/C(=C\\c1ccc(N2CCOCC2)o1)c1ccccc1", "Potency": "active: 11.2 µM"}, {"molecule": "Cc1cc(N2CCOCC2)nc2ccc(NC(=S)N3CCCCC3C)cc12", "note": "(configuration not stated)", "Potency": "inconclusive [inhibitor, full curve]"}, {"molecule": "Cc1ccc(NC(=O)Nc2ccccc2)cc1[N+](=O)[O-]", "Potency": "inactive"}, {"molecule": "Cc1ccc(S(=O)(=O)/N=C(\\c2ccccc2)N(C)S(=O)(=O)c2ccc(C)cc2)cc1", "Potency": "inconclusive [inhibitor, single point]"}, {"molecule": "CN(C)c1ccc(/C=N/NC(=O)CNC(=O)c2ccco2)cc1", "Potency": "inconclusive [inhibitor, partial curve]"}, {"molecule": "Clc1cccc(CSc2nnc(-c3sccc3-n3cccc3)o2)c1", "Potency": "inconclusive [inhibitor, single point]"}, {"molecule": "COc1ccc(NCC(O)Cn2c(C)c(C)c3ccccc32)cc1", "note": "(configuration not stated)", "Potency": "inconclusive [inhibitor, single point]"}, {"molecule": "CCN(CC)CCn1c(SCC(=O)NCc2ccco2)nc2c(sc3ccccc32)c1=O", "Potency": "inconclusive [inhibitor, partial curve]"}, {"molecule": "C/C=C/c1ccc(OCCN2CCc3ccccc3C2)c(OC)c1", "Potency": "inconclusive [inhibitor, single point]"}]}]}
